Data on 167 variants can be found in the RNAGym collection of RNA variant scans (doi:10.7554/elife.90254).

The labels stand for the following.
B1: LINE1-mini (parent)
chain: GGCAGAGCUCAACACAGCGUGGCAAAGUGGCUGUGGCUAGACUGCC

Read counts are not given, so values of variants with three or more changes are uncertain.

This series covers variants of B1. The series can be described thus: self-cleavage, relative activity (ratio to wild type); higher = more cleavage; in vitro, sequencing; the parent is a self-cleaving ribozyme.
As for G19C A25C G27U, the self-cleavage was 0.72.

Consider G2U C13A C23A, for which the self-cleavage was determined as 0.04.

Take U20A G21U C23U: the self-cleavage came out at 0.57.

Regarding A11G A12C A14C C23A G40C G44A, the self-cleavage came to 0.

For the variant G22U A24G C42A, the self-cleavage was 0.02.

With C10A G30U C31A C42U, the self-cleavage was found to be 0.11.

For G7C C18G G22A A39C A41G, the self-cleavage was determined as 0.08.

Turning to C8A C23A A26C, the self-cleavage turned out to be 0.16.

Consider C13G C15G A24C G27C, for which the self-cleavage was 0.02.

For the variant C13A C18U G19A, the self-cleavage was 0.11.

G7A A11G G22U G30U G33A C42G: the self-cleavage was found to be 0.

On to G1C G5C U28C G33A, for which the self-cleavage is 0.02.

G2U C3A A14U C18A G22U U28A G30U: the self-cleavage is 0.03.

A4G G21C A25U G27C U32A C42G: the self-cleavage is 0.01.

With C18U C23U G30U, the self-cleavage came to 0.15.

Regarding A4U C18G G40A U43A, the self-cleavage worked out at 0.02.

As for G29U G30A A39G, the self-cleavage is 0.14.

Consider G22U A26C U32A, for which the self-cleavage came out at 0.19.

As to C3A A6C C18G G35C A41U, the self-cleavage was determined as 0.2.

On to C3A A6U C8U A12C C45A C46U, for which the self-cleavage amounted to 0.02.

Regarding G2C G5A A11U, the self-cleavage is 0.02.

Consider A4G G5U A14G U34A, for which the self-cleavage came out at 0.12.

As for U20G G36U A41G, the self-cleavage is 0.05.

On to G7C G22A C23A G36U C42G C45U, for which the self-cleavage is 0.01.

In the case of G1U C8A G35C C45U, the self-cleavage was 0.05.

In the case of C3G C13A G40A, the self-cleavage was 0.13.

For the variant G1C C13A C18A C37A, the self-cleavage was found to be 0.08.

With G7C U28C G33U, the self-cleavage came to 0.06.

For the variant U28G U34C C37U G44U, the self-cleavage was found to be 0.03.

Take C13G A14C G17C C37G C46U: the self-cleavage was found to be 0.

With C10G C23G G44C, the self-cleavage is 0.01.

Consider A4C U28C U43A C46A, for which the self-cleavage was 0.03.

As to G1U U38G C45G, the self-cleavage was 0.03.

Take A14U C15A A26G G44A: the self-cleavage was determined as 0.02.

As for A6C A12U G17A G40U, the self-cleavage is 0.01.

For C8A A26U U28C, the self-cleavage is 0.17.

On to G7C A14U C15A C18U U20A G30U C31U A39C, for which the self-cleavage worked out at 0.

On to G17U U20A A25U G27U G30U, for which the self-cleavage was 0.21.

As to A6U C18G G30C, the self-cleavage amounted to 1.2.

Take G7C C8G A24U C46G: the self-cleavage was found to be 0.13.

For the variant C3U A24C C31U, the self-cleavage worked out at 0.02.

C3U G7A A12U C45G: the self-cleavage is 0.22.

Regarding C10G C37U U43C, the self-cleavage is 0.01.

As for G1C C8A C13A G33A, the self-cleavage was found to be 0.01.

Take G19U G30A U43A: the self-cleavage worked out at 0.02.

Regarding C3U C31A G36A G40A, the self-cleavage worked out at 0.16.

For C8A A24C A26U, the self-cleavage was 0.22.

As for C3A A24C G29U C46A, the self-cleavage is 0.15.

Regarding G1U C10U G17A A24U, the self-cleavage is 0.05.

Turning to A14G G21U A24G, the self-cleavage is 0.24.

With U9G A14C G19A, the self-cleavage stood at 0.05.

Regarding G5U C10U C15A G36U, the self-cleavage is 0.07.

Take A4G C18G A24G G29U: the self-cleavage was 0.13.

As to A14G U28C G35C, the self-cleavage came to 0.05.

In the case of A6U G35U C37U U38G, the self-cleavage came to 0.03.

On to C3U C13G C23U G40C C42G, for which the self-cleavage is 0.02.

For C18G U20C G36U, the self-cleavage was determined as 0.04.

Take U9A C18A G22C G36A: the self-cleavage turned out to be 0.03.

In the case of A24U U34C G36U G40C, the self-cleavage came out at 0.05.

A4G G5A U28A: the self-cleavage was determined as 0.03.

Take G17C G35U C37A: the self-cleavage was 0.05.

As for G5A U9G C10U G19A U20C, the self-cleavage was 0.03.

Take G5A C15U G33U: the self-cleavage amounted to 0.07.

U38A A41G U43A: the self-cleavage was determined as 0.05.

For the variant G2U C3A A6G A16C G22U C31A, the self-cleavage was 0.13.

Consider G22C A41C C46U, for which the self-cleavage was found to be 0.01.

Turning to G5A G21C A26U C31G G33C, the self-cleavage worked out at 0.03.

In the case of C18U U43A C46G, the self-cleavage came out at 0.03.

With A16U C31U G36A C46U, the self-cleavage is 0.03.

Regarding A11C A12G U20A, the self-cleavage turned out to be 0.03.

Take C15A A26C G35A C45G: the self-cleavage worked out at 0.

For G1A C10A A24G, the self-cleavage was determined as 0.06.

As for A6C C8G A12G C42U, the self-cleavage is 0.03.

G5A G7U G40U: the self-cleavage worked out at 0.48.

Regarding A4U C37U A39G, the self-cleavage was found to be 0.03.

For the variant G2U G35C G40A, the self-cleavage turned out to be 0.01.

Consider C37A A41G G44U C46G, for which the self-cleavage amounted to 0.02.

For the variant C8U C10A C31G, the self-cleavage is 0.02.

On to C13U C18U G27U C42A, for which the self-cleavage came to 0.07.

A6C C8U U9C G33U U34C: the self-cleavage came out at 0.1.

C15A G19U A26G: the self-cleavage is 0.06.

C15G G17C G36U U43C: the self-cleavage was found to be 0.01.

Turning to G5U A25C C46U, the self-cleavage is 0.04.

Turning to A26C G29A U34A A41G, the self-cleavage was 0.17.

Take G2U A12C C46A: the self-cleavage turned out to be 0.01.

Regarding U20G A26U G40U U43G, the self-cleavage turned out to be 0.03.

For the variant C3G G27C G44A, the self-cleavage came to 0.59.

C23U G35U U43C: the self-cleavage was determined as 1.24.

In the case of G5U U9C C37A, the self-cleavage turned out to be 0.02.

In the case of G1A G5U C13G U32G, the self-cleavage turned out to be 0.04.

In the case of C10U C13U A14G G29C C37U, the self-cleavage was 0.

With G7U G30A G36U, the self-cleavage came to 0.07.

Regarding G1U A11U C23U A39U G44A, the self-cleavage turned out to be 0.01.

Consider G7C C10A G27C, for which the self-cleavage was 0.07.

For C10A G19U A26C C37G, the self-cleavage is 0.

Regarding G7A C10A G17U A24C U28C, the self-cleavage was 0.02.

Regarding G2C A6U C10U A41U, the self-cleavage amounted to 0.07.

Consider A25U C31G C46G, for which the self-cleavage was determined as 0.05.

In the case of U9C G29A U32C U38A A41C G44C, the self-cleavage stood at 0.01.

With C3U A11U A25C, the self-cleavage was 0.02.

As for U38A C45G C46G, the self-cleavage was found to be 0.03.

Turning to C8U U28G G30C, the self-cleavage turned out to be 0.07.

For the variant G7A G30U G40C, the self-cleavage is 0.05.

For G17C G19A U38A, the self-cleavage was determined as 0.34.

Consider A11G A16U G21U, for which the self-cleavage was 0.03.

As to C3G A6C C18U G21A U32C C45U C46A, the self-cleavage was 0.28.

In the case of A6C G27U G29C C46G, the self-cleavage is 0.17.

With C3A C8A A11C C13G G30C, the self-cleavage was 0.03.

In the case of C8G A14C G33C G44C, the self-cleavage turned out to be 0.02.

As to A4G G17U A26U G27U, the self-cleavage was 0.16.

For G19U A25C G36U, the self-cleavage turned out to be 0.05.

Regarding C3U C31U U34A C37U, the self-cleavage turned out to be 0.06.

As for A12C G17U C42A, the self-cleavage amounted to 0.04.

With G2A G7A C8G U20C U34G G40U, the self-cleavage came to 0.36.

Take C8A G21U U34C: the self-cleavage was determined as 0.13.

For the variant A25G A26U G33A, the self-cleavage is 0.1.

On to C8U C31A U32C G33A, for which the self-cleavage was 0.1.

For A26C G33A C42U U43A, the self-cleavage came to 0.05.

Take G1C A16U U32C: the self-cleavage is 0.01.

For C3G C23A A26U G29A, the self-cleavage was determined as 0.83.

Regarding G2U A4U G5U C8U C23A G33U U43G, the self-cleavage was 0.08.

With G7U G29U G30C U38A, the self-cleavage was 0.01.

Take A14G G22A U32G U38A C42A: the self-cleavage is 0.02.

As for A4U A24C C46G, the self-cleavage was determined as 0.04.

As for C13G A41G G44U, the self-cleavage turned out to be 0.06.

As for C3G C15U G29U, the self-cleavage worked out at 0.47.

For the variant G1A G17U G44C, the self-cleavage is 0.05.

C3A A12G C31G: the self-cleavage is 0.02.

As for U20C G30U C31A G40U, the self-cleavage came out at 0.02.

Turning to G1C C3A A6G A11G G22U C42U, the self-cleavage stood at 0.01.

For C18A U43C C45G, the self-cleavage worked out at 0.03.

Consider G7U A12U A14G G35C, for which the self-cleavage stood at 0.02.

Turning to C3A A24C G40C, the self-cleavage turned out to be 0.15.

Take A6U C13G C37A: the self-cleavage came out at 0.37.

For the variant C10G A12G C15G G21U U28G G35A C45A, the self-cleavage is 0.

On to A11G A24U G35U, for which the self-cleavage amounted to 0.01.

For G7C C18U U34C G35U, the self-cleavage worked out at 0.04.

U9C C10U C42U: the self-cleavage was found to be 0.05.

G2A G21C C37U: the self-cleavage is 0.14.

Take U9G C23G G33U: the self-cleavage came to 0.01.

On to U9C C13A A24C U28A U32G G33U, for which the self-cleavage stood at 0.01.

In the case of U20G G33U C37A, the self-cleavage was determined as 0.07.

In the case of A4U G7C U32A G40A, the self-cleavage worked out at 0.05.

G2U G22A A26U A41U: the self-cleavage is 0.04.

Regarding G1A G5U U38G, the self-cleavage worked out at 0.03.

For A4G C13U G40A C45G, the self-cleavage is 0.08.

On to C8A U9C A16C G17C G30C, for which the self-cleavage turned out to be 0.07.

G1C C3U A14G G33U C45A: the self-cleavage amounted to 0.18.

Take G1C U43G G44C: the self-cleavage came out at 0.01.

For C3G C13U G44U, the self-cleavage was 0.06.

In the case of G2U C3A G29U U43A, the self-cleavage turned out to be 0.47.

As for A16G G21C U34G C45U C46G, the self-cleavage came out at 0.

As to A6G A24G G29C G30C, the self-cleavage is 0.29.

As to G1A G2C A11U G27C, the self-cleavage was 0.02.

As to G5A G36C A41U C46U, the self-cleavage was found to be 0.07.

For C13U U32C C46U, the self-cleavage is 0.14.

Consider A25G G40U C45G, for which the self-cleavage is 0.

Take G2A U38A A41U: the self-cleavage was 0.23.

In the case of G22C A26G C45G, the self-cleavage stood at 0.12.

Turning to G7A G21U U28C G29C, the self-cleavage was 0.01.

For the variant G5U C8G C15U G27U, the self-cleavage was found to be 0.06.

On to A14G A25C U28C G30U, for which the self-cleavage stood at 0.14.

Regarding G2U A4G G7U C8G, the self-cleavage came to 0.08.

In the case of G7A A11G G29U U32C, the self-cleavage was 0.08.

In the case of A4G U20G C42G, the self-cleavage was 0.01.

Regarding U9G A12C G36U C37A A41C, the self-cleavage turned out to be 0.03.

On to G7C G33A A41G C42G, for which the self-cleavage was 0.13.
